{"source": "the supplement of paper PMC8728848", "binders": {"B1": {"name": "DC-ASGPR Long (Homo sapiens) (protein)", "chain": "MTRTYENFQYLENKVKVQGFKNGPLPLQSLLQRLRSGPCHLLLSLGLGLLLLVIICVVGFQNSKFQRDLVTLRTDFSNFTSNTVAEIQALTSQGSSLEETIASLKAEVEGFKQERQAGVSELQEHTTQKAHLGHCPHCPSVCVPVHSEMLLRVQQLVQDLKKLTCQVATLNNNASTEGTCCPVNWVEHQDSCYWFSHSGMSWAEAEKYCQLKNAHLVVINSREEQNFVQKYLGSAYTWMGLSDPEGAWKWVDGTDYATGFQNWKPGQPDDWQGHGLGGGEDCAHFHPDGGWNDDVCQRPYHWVCEAGLGQTSQESH"}}, "assay_in_all_cases": "glycan array binding signal (z-score within array); higher = stronger binding", "conditions_in_all_cases": "glycan notation: IUPAC condensed, linker removed", "key": {"Gal(a1-3)Gal": {"target": "Gal(a1-3)Gal", "method_in_brief": "(§1)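 Columns mapping to the same glycan were averaged after glycan names were converted to IUPAC-condensed notation. The data come from 3228 arrays in the Consortium for Functional Glycomics database, limited to those with an available protein sequence. Binding is reported as a within-array Z-score averaged across arrays of one protein sequence and across linkers.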"}, "Gal(a1-3)Gal(b1-3)GlcNAc": {"target": "Gal(a1-3)Gal(b1-3)GlcNAc", "method_in_brief": "as §1"}, "[1]": {"target": "Gal(a1-3)Gal(b1-3)GlcNAc(b1-2)Man", "method_in_brief": "as §1"}, "[2]": {"target": "Gal(a1-3)Gal(b1-3)GlcNAc(b1-2)Man(a1-3)[Gal(a1-3)Gal(b1-3)GlcNAc(b1-2)Man(a1-6)]Man(b1-4)GlcNAc(b1-4)GlcNAc", "method_in_brief": "as §1"}, "[3]": {"target": "Gal(a1-3)Gal(b1-3)GlcNAc(b1-3)GalNAc", "method_in_brief": "as §1"}, "[4]": {"target": "Gal(a1-3)Gal(b1-3)GlcNAc(b1-6)GalNAc", "method_in_brief": "as §1"}, "[5]": {"target": "Gal(a1-3)Gal(b1-3)[Fuc(a1-4)]GlcNAc(b1-2)Man(a1-3)[Gal(a1-3)Gal(b1-3)[Fuc(a1-4)]GlcNAc(b1-2)Man(a1-6)]Man(b1-4)GlcNAc(b1-4)GlcNAc", "method_in_brief": "as §1"}, "Gal(a1-3)Gal(b1-4)Glc": {"target": "Gal(a1-3)Gal(b1-4)Glc", "method_in_brief": "as §1"}, "Gal(a1-3)Gal(b1-4)GlcNAc": {"target": "Gal(a1-3)Gal(b1-4)GlcNAc", "method_in_brief": "as §1"}, "[6]": {"target": "Gal(a1-3)Gal(b1-4)GlcNAc(b1-2)Man", "method_in_brief": "as §1"}, "[7]": {"target": "Gal(a1-3)Gal(b1-4)GlcNAc(b1-2)Man(a1-3)[Gal(a1-3)Gal(b1-4)GlcNAc(b1-2)Man(a1-6)]Man(b1-4)GlcNAc(b1-4)GlcNAc", "method_in_brief": "as §1"}, "[8]": {"target": "Gal(a1-3)Gal(b1-4)GlcNAc(b1-3)GalNAc", "method_in_brief": "as §1"}, "[9]": {"target": "Gal(a1-3)Gal(b1-4)GlcNAc(b1-6)GalNAc", "method_in_brief": "as §1"}, "[10]": {"target": "Gal(a1-3)Gal(b1-4)[Fuc(a1-3)]GlcNAc", "method_in_brief": "as §1"}, "[11]": {"target": "Gal(a1-3)Gal(b1-4)[Fuc(a1-3)]GlcNAc(b1-2)Man(a1-3)[Gal(a1-3)Gal(b1-4)[Fuc(a1-3)]GlcNAc(b1-2)Man(a1-6)]Man(b1-4)GlcNAc(b1-4)GlcNAc", "method_in_brief": "as §1"}, "Gal(a1-3)GalNAc": {"target": "Gal(a1-3)GalNAc", "method_in_brief": "as §1"}, "[12]": {"target": "Gal(a1-3)[Gal(a1-4)]Gal(b1-4)GlcNAc", "method_in_brief": "as §1"}, "[13]": {"target": "Gal(a1-4)Gal(b1-3)GlcNAc(b1-2)Man(a1-3)[Gal(a1-4)Gal(b1-3)GlcNAc(b1-2)Man(a1-6)]Man(b1-4)GlcNAc(b1-4)GlcNAc", "method_in_brief": "as §1"}, "Gal(a1-4)Gal(b1-4)Glc": {"target": "Gal(a1-4)Gal(b1-4)Glc", "method_in_brief": "as §1"}, "Gal(a1-4)Gal(b1-4)GlcNAc": {"target": "Gal(a1-4)Gal(b1-4)GlcNAc", "method_in_brief": "as §1"}, "[14]": {"target": "Gal(a1-4)Gal(b1-4)GlcNAc(b1-2)Man(a1-3)[Gal(a1-4)Gal(b1-4)GlcNAc(b1-2)Man(a1-6)]Man(b1-4)GlcNAc(b1-4)GlcNAc", "method_in_brief": "as §1"}, "[15]": {"target": "Gal(a1-4)Gal(b1-4)GlcNAc(b1-3)Gal(b1-4)Glc", "method_in_brief": "as §1"}, "Gal(a1-4)GlcNAc": {"target": "Gal(a1-4)GlcNAc", "method_in_brief": "as §1"}, "Gal(a1-6)Glc": {"target": "Gal(a1-6)Glc", "method_in_brief": "as §1"}, "Gal(b1-2)Gal": {"target": "Gal(b1-2)Gal", "method_in_brief": "as §1"}, "Gal(b1-3)Gal": {"target": "Gal(b1-3)Gal", "method_in_brief": "as §1"}, "Gal(b1-3)Gal(b1-4)GlcNAc": {"target": "Gal(b1-3)Gal(b1-4)GlcNAc", "method_in_brief": "as §1"}, "Gal(b1-3)GalNAc": {"target": "Gal(b1-3)GalNAc", "method_in_brief": "as §1"}, "[16]": {"target": "Gal(b1-3)GalNAc(a1-3)[Fuc(a1-2)]Gal(b1-4)Glc", "method_in_brief": "as §1"}, "[17]": {"target": "Gal(b1-3)GalNAc(a1-3)[Fuc(a1-2)]Gal(b1-4)GlcNAc", "method_in_brief": "as §1"}, "Gal(b1-3)GalNAc(b1-3)Gal": {"target": "Gal(b1-3)GalNAc(b1-3)Gal", "method_in_brief": "as §1"}, "[18]": {"target": "Gal(b1-3)GalNAc(b1-3)Gal(a1-4)Gal(b1-4)Glc", "method_in_brief": "as §1"}, "[19]": {"target": "Gal(b1-3)GalNAc(b1-4)Gal(b1-4)Glc", "method_in_brief": "as §1"}, "[20]": {"target": "Gal(b1-3)GalNAc(b1-4)[Neu5Ac(a2-3)]Gal(b1-4)Glc", "method_in_brief": "as §1"}, "Gal(b1-3)GlcNAc": {"target": "Gal(b1-3)GlcNAc", "method_in_brief": "as §1"}, "[21]": {"target": "Gal(b1-3)GlcNAc(a1-3)Gal(b1-4)GlcNAc", "method_in_brief": "as §1"}, "[22]": {"target": "Gal(b1-3)GlcNAc(a1-6)Gal(b1-4)GlcNAc", "method_in_brief": "as §1"}, "Gal(b1-3)GlcNAc(b1-2)Man": {"target": "Gal(b1-3)GlcNAc(b1-2)Man", "method_in_brief": "as §1"}}, "note": "The other results are listed elsewhere or left out.", "data": [{"binder": "B1", "values": [{"measurement": "glycan array binding signal (z-score)", "setting": "Gal(a1-3)Gal", "value": 0.361}, {"measurement": "glycan array binding signal (z-score)", "setting": "Gal(a1-3)Gal(b1-3)GlcNAc", "value": -0.064}, {"measurement": "glycan array binding signal (z-score)", "setting": "[1]", "value": -0.229}, {"measurement": "glycan array binding signal (z-score)", "setting": "[2]", "value": -0.541}, {"measurement": "glycan array binding signal (z-score)", "setting": "[3]", "value": -0.252}, {"measurement": "glycan array binding signal (z-score)", "setting": "[4]", "value": 3.07}, {"measurement": "glycan array binding signal (z-score)", "setting": "[5]", "value": -0.278}, {"measurement": "glycan array binding signal (z-score)", "setting": "Gal(a1-3)Gal(b1-4)Glc", "value": -0.226}, {"measurement": "glycan array binding signal (z-score)", "setting": "Gal(a1-3)Gal(b1-4)GlcNAc", "value": -0.382}, {"measurement": "glycan array binding signal (z-score)", "setting": "[6]", "value": -0.092}, {"measurement": "glycan array binding signal (z-score)", "setting": "[7]", "value": -0.396}, {"measurement": "glycan array binding signal (z-score)", "setting": "[8]", "value": -0.114}, {"measurement": "glycan array binding signal (z-score)", "setting": "[9]", "value": 3.58}, {"measurement": "glycan array binding signal (z-score)", "setting": "[10]", "value": -0.414}, {"measurement": "glycan array binding signal (z-score)", "setting": "[11]", "value": 0.459}, {"measurement": "glycan array binding signal (z-score)", "setting": "Gal(a1-3)GalNAc", "value": -0.006}, {"measurement": "glycan array binding signal (z-score)", "setting": "[12]", "value": -0.216}, {"measurement": "glycan array binding signal (z-score)", "setting": "[13]", "value": -0.383}, {"measurement": "glycan array binding signal (z-score)", "setting": "Gal(a1-4)Gal(b1-4)Glc", "value": -0.365}, {"measurement": "glycan array binding signal (z-score)", "setting": "Gal(a1-4)Gal(b1-4)GlcNAc", "value": -0.101}, {"measurement": "glycan array binding signal (z-score)", "setting": "[14]", "value": -0.324}, {"measurement": "glycan array binding signal (z-score)", "setting": "[15]", "value": -0.788}, {"measurement": "glycan array binding signal (z-score)", "setting": "Gal(a1-4)GlcNAc", "value": -0.054}, {"measurement": "glycan array binding signal (z-score)", "setting": "Gal(a1-6)Glc", "value": 1.29}, {"measurement": "glycan array binding signal (z-score)", "setting": "Gal(b1-2)Gal", "value": -0.067}, {"measurement": "glycan array binding signal (z-score)", "setting": "Gal(b1-3)Gal", "value": 0.299}, {"measurement": "glycan array binding signal (z-score)", "setting": "Gal(b1-3)Gal(b1-4)GlcNAc", "value": -0.207}, {"measurement": "glycan array binding signal (z-score)", "setting": "Gal(b1-3)GalNAc", "value": -0.129}, {"measurement": "glycan array binding signal (z-score)", "setting": "[16]", "value": -0.124}, {"measurement": "glycan array binding signal (z-score)", "setting": "[17]", "value": -0.289}, {"measurement": "glycan array binding signal (z-score)", "setting": "Gal(b1-3)GalNAc(b1-3)Gal", "value": -0.38}, {"measurement": "glycan array binding signal (z-score)", "setting": "[18]", "value": 0.892}, {"measurement": "glycan array binding signal (z-score)", "setting": "[19]", "value": -0.606}, {"measurement": "glycan array binding signal (z-score)", "setting": "[20]", "value": 0.778}, {"measurement": "glycan array binding signal (z-score)", "setting": "Gal(b1-3)GlcNAc", "value": -0.053}, {"measurement": "glycan array binding signal (z-score)", "setting": "[21]", "value": 0.038}, {"measurement": "glycan array binding signal (z-score)", "setting": "[22]", "value": 0.505}, {"measurement": "glycan array binding signal (z-score)", "setting": "Gal(b1-3)GlcNAc(b1-2)Man", "value": -0.186}]}]}
